Some of the results follow.

The experiment relates to PF3D7_0420300 AP2 domain 1 (GST-tagged). Description: gcPBM binding intensity (ln(normalized median fluorescence intensity)); higher = stronger DNA binding. An outline of the steps:
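An Agilent 4 × 180k array carrying primer-extended double-stranded 36-bp intergenic genomic probes and negative controls received GST-tagged P. falciparum DNA-binding domains expressed in E. coli, about 25 μg on average, for 1 h. The binding buffer contained 1× PBS, 1% milk, 0.2 mg/ml BSA, 0.5% salmon testes DNA and 0.03% Triton X-100. Binding intensity is the top Masliner-normalised natural-log median intensity across replicate spots of either probe orientation, read after Alexa488 anti-GST antibody staining and a 488 nm scan.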
Consider “TAGGCGTTTAATAAAAGTACCCACACATATATTATT [XGTACX_site1932]”, for which the “gcPBM binding intensity (ln)” value amounted to 9.33.
In the case of “TTTATTATCGTTCTCATACACACAAAATATACATAC [CACACA_site2642]”, the “gcPBM binding intensity (ln)” value amounted to 9.65.
In the case of “AAATATATATGTGGGGGTACTAATAAAAAAACCCCT [XGTACX_site2657]”, the “gcPBM binding intensity (ln)” value amounted to 9.31.
The value for “AATTCAAATATAAATACACACACATAGCTACAAAAT [CACACA_site9386]” was 10.
The value for “ATTTAACAACTTCAAACACACAATATATATATATAT [CACACA_site2093]” was 9.35.
With “CATAAATTAATAGTCACACACGTATTTTTTATATAT [CACACA_site2526]”, the “gcPBM binding intensity (ln)” value worked out at 9.47.
As for “TGAAAAAAAAAAAAAAAAAAAAGAAAAAAAAAAAAA [CACACA_negctrl_site709]”, the figure is 8.27; as for “TTACACAAACAAATTATGGACACATAAGTAAAAGGA [CACACA_negctrl_site1622]”, 9.63.
“TTATCCATAAAAAAGTGTACGCACTAAAATTGAAAA [XGTACX_site5460]”: the “gcPBM binding intensity (ln)” value was determined as 9.05.
Regarding “GAAAAAAGAAAAAAAAGTACATATATTTAATAAGAC [XGTACX_site6912]”, the “gcPBM binding intensity (ln)” value came to 9.57.
As for “TATAATTCATATGAAACACACATTTATTTTAATTAC [CACACA_site3686]”, the figure is 9.35; as for “GGACTTAAATAAAATGGTACAGAATTTATATATATT [XGTACX_site8214]”, 9.23.
As to “TAATGGAATACATATAGTACATAATATTACATACAT [XGTACX_site5737]”, the “gcPBM binding intensity (ln)” value stood at 9.43.
The value for “TTTTAAAAATTAAAAAAATTAAATGTAAAAAAATGA [CACACA_negctrl_site861]” was 8.91; that for “ATATATGTATATGTGTGTACATATATGTTTATTATT [XGTACX_site6043]” was 9.55; that for “ATTAAAAATTAATATAAACACACAAAAATTAATAAA [CACACA_site8019]” was 9.61.
Consider “TCCTCGCGTAATACTTTTCAAATAAAAAAAATAAAA [TGCATGCA_negctrl_site403]”, for which the “gcPBM binding intensity (ln)” value stood at 8.64.
The value for “TTTTTTTTTTTTTATTGTACTAGTAGATATATATAC [XGTACX_site3463]” was 9.17; that for “CCAATATATACATATATATAGTTATATATATTTCCT [TGCATGCA_negctrl_site38]” was 9.19; that for “GTGTCAAATTTTATAACACACAAAAGATTATATAAG [CACACA_site4086]” was 9.3.
In the case of “AAACATACTTGATGCAGTACACATTATAAGCACATA [XGTACX_site3359]”, the “gcPBM binding intensity (ln)” value was determined as 9.26.
For the sequence TTATGTGCTTTAAAAGTGCATTTTTTTTTTTTTTTT, the “gcPBM binding intensity (ln)” value turned out to be 8.86.
As for “TATATGTTTTATAAATGTACATATACTTAAATATTT [XGTACX_site4753]”, the figure is 9.13; as for “TTTATCAAAAAAAAAAAAAAAAAAAAAAAAAATTGT [CACACA_negctrl_site176]”, 8.91.
As for “TTATTTGTATCCATTTCACACATTTTATATAGTATC [CACACA_site5989]”, the figure is 9.45; as for TTTTTTGTTATGCGGGTGCATATAATAATGTGATGA, 9.08.
The value for “AATACATAATAACGTTGTACAAAAATTATAATACAT [XGTACX_site6508]” was 9.62; that for “ACTATTAAGAATAAAGAAATATGTAATTGTATTTAA [CACACA_negctrl_site516]” was 9.06; that for “TATAAATAAATGTGTACACACATTAAAATCAAACGT [CACACA_site2340]” was 9.75.
On to “TTTTTTTTTTTTTTTACACACAAATGTATACTATAT [CACACA_site1787]”, for which the “gcPBM binding intensity (ln)” value worked out at 9.41.
The value for “TATTAAATATTCATATGTACATATAGTTTATAAATT [XGTACX_site7455]” was 9.09; that for “ATATATGTATGTTAGACACACATATTATAATATGTT [CACACA_site116]” was 9.41.
Regarding “AAAACGGATTCTTTATAAATAAATAAATAAATATAA [XGTACX_negctrl_site157]”, the “gcPBM binding intensity (ln)” value is 8.9.
Turning to “AATACATACACAAATACACACACAAATACATACACA [CACACA_site8134]”, the “gcPBM binding intensity (ln)” value was found to be 10.1.
The value for “GTATTATCTTTTAATAGTACATATTTTTTTGAAACA [XGTACX_site4050]” was 9.
On to “AATATATTTTTATATTGTACAAAAGAAAAAAAATAT [XGTACX_site1689]”, for which the “gcPBM binding intensity (ln)” value was determined as 9.23.
The value for “CATATAATATTTGAAACTATATATAAATATAAGGTA [TGCATGCA_negctrl_site19]” was 9.19; that for “AGTTTTCCATGTTAATGTACTTAACAATACCATAAT [XGTACX_site209]” was 9.25; that for “ATTTATTCATAGACAACAAGAAAAAAAAAAAAAATT [CACACA_negctrl_site1168]” was 9.3.
The value for “TATATCCATATTGTATGTACACATATAATACCAATG [XGTACX_site7230]” was 9.27; that for “ATATATTTAATATTCACACATAATTATTTTTACTCT [CACACA_site5438]” was 9.45.
The value for “ATATAATGATAATATTGTACATGTTATATTTCAATA [XGTACX_site8645]” was 9.2; that for “TATAGATAAGAATATGCACACATTTTATTTTTTTTT [CACACA_site1982]” was 9.3.
Turning to “TTGTAATATCTTGTCACACATATATATATATATATA [CACACA_site4937]”, the “gcPBM binding intensity (ln)” value turned out to be 9.31.
As for “TTTTTAATTTATTAAGAAGTAAAGAATAACTCTTTT [TGCATGCA_negctrl_site101]”, the figure is 8.57; as for “AAACATTAAAATAACTCACACATTTTTCTAGTCTTC [CACACA_site4612]”, 9.41.
For the sequence “TATTATTCTGTATTTGCATGTGATCATATATATGTA [TGCATGCA_site1053]”, the “gcPBM binding intensity (ln)” value was determined as 9.47.
As for “CATATGTATATGACTACACACAAGGGTGTACAGATA [CACACA_site4776]”, the figure is 9.51; as for GTATATCATTTTGGGGTGCTTAAAAATAATGAATAC, 9.27.
The value for “TATATAACATAATATACACACATTATGTGCGTAATT [CACACA_site4073]” was 9.48.
As for “TTTTTTTTTTTTTATTGTACAAAGGTATAAAATAAT [XGTACX_site2396]”, the figure is 8.94.
As to “CATACATACAGACACACACACATATATATATATATA [CACACA_site2920]”, the “gcPBM binding intensity (ln)” value turned out to be 9.91.
As to “ATAAAAATACAGTTAACACACATGTGGATATATATG [CACACA_site3771]”, the “gcPBM binding intensity (ln)” value stood at 9.78.
Regarding “AACATAAAAATGAACATACACACATATATATATATA [CACACA_site2497]”, the “gcPBM binding intensity (ln)” value was found to be 9.83.
The value for “AAACAAAAAAGTAAGAAAAGGGATGATTGGATCCAA [CACACA_negctrl_site1230]” was 9.33; that for “AGATATTATAATTAATGTACAAAAAGAAAAAATAGA [XGTACX_site8964]” was 9.35; that for “CATTTTTACCGGTACTGTACATAAAAAAAAAAAAAG [XGTACX_site1548]” was 9.17.
Consider “TTATATGTTTTACAACGTACACAAAAAAAACTTATA [XGTACX_site4413]”, for which the “gcPBM binding intensity (ln)” value was determined as 9.02.
With “TATATAATATTTTTCACACACCATTTCCTTAAACAC [CACACA_site4862]”, the “gcPBM binding intensity (ln)” value was determined as 9.58.
As for “GCAGGCTAAAAAATTACACACGAAAAAAATGAATTT [CACACA_site3417]”, the figure is 9.15; as for “CATATATGGTTATATACATGCACCATTATATTATTA [TGCATGCA_site520]”, 9.23.
The value for “TAAAAAAAAAGAAGGGGTACATGGATAATATATAAA [XGTACX_site8386]” was 9.53; that for “TGTATAACCTGTGTTACACACATTATGATTTATATA [CACACA_site525]” was 9.54.
As for “TATAATAATTCTTTGAGTACTTAAACATGTGAAATT [XGTACX_site955]”, the “gcPBM binding intensity (ln)” value worked out at 9.07.
The value for “GCGAGATGCTAAAATGCATGTTGGGCATTAGTTAAA [TGCATGCA_site586]” was 8.9; that for “ATATTAATATATGTGGCACACATGTGGAGTCCTATT [CACACA_site213]” was 9.57.
As for “TATCATTTCTAAAAAGGTACACATACATCATATATT [XGTACX_site3386]”, the figure is 9.2; as for “GTGTAGTAAAATCGATGTACGTACAAATCAATTATT [XGTACX_site7662]”, 9.28; as for “AAAAAAATGAAGAAATGTACAAATTTCATTAATTTT [XGTACX_site354]”, 9.04.
The value for “TATATATGTAAATGCACACATATGTGGATATACTTA [CACACA_site1699]” was 9.43; that for ACATATAAATATTGTGTGCACACACATAATATATAT was 9.94; that for “GTAATTTTAAAGAAAAGTACACATTTATTAATTATT [XGTACX_site4468]” was 9.09.
As to “AAAAATTATAACTAAAAAAATCACACAAAATATTTT [TGCATGCA_negctrl_site28]”, the “gcPBM binding intensity (ln)” value came to 9.34.
As for “TTGCATTTATTATACACACACAAAAAAATATATATA [CACACA_site238]”, the “gcPBM binding intensity (ln)” value was determined as 9.8.
Consider “GTGTTAAATGTTTACACACAAACTTGCAATAATTAT [CACACA_site3825]”, for which the “gcPBM binding intensity (ln)” value amounted to 9.52.
With “TATGTATTTAAGTTACCTGAACGTTCAGGTAAAATT [CACACA_negctrl_site1393]”, the “gcPBM binding intensity (ln)” value was 9.25.
As for “TATAAAAAAAAAAAAAGTACTAACTTAAAACAATTT [XGTACX_site7969]”, the figure is 9.14.
Consider “TTGATAATTATATAATGTACTCATTATAATATGATG [XGTACX_site7813]”, for which the “gcPBM binding intensity (ln)” value came out at 8.97.
The value for “TGATAAAGTAAATATACATGCGATTAGTTATATATA [TGCATGCA_site720]” was 9.31; that for “TTTATTCTCAAACACACACACATATATATATATATA [CACACA_site2895]” was 9.69; that for “TAATTAATAATAATATGTACATATTAATATATTATT [XGTACX_site6900]” was 9.13.
“TTTTATATATATATCACACACACACCCATGTTTTAA [CACACA_site79]”: the “gcPBM binding intensity (ln)” value is 10.
Consider “TATTTATTCTCCAACACACACACATATATTTATATA [CACACA_site7376]”, for which the “gcPBM binding intensity (ln)” value was determined as 9.98.
Consider “AGTTTGTCAATCAACACACACCTATTTATTATAGAT [CACACA_site7777]”, for which the “gcPBM binding intensity (ln)” value came out at 9.58.
Regarding “TTTTTTTTACATTCTGCACACAATTTATTTTTTTTT [CACACA_site36]”, the “gcPBM binding intensity (ln)” value worked out at 9.67.
For the sequence “AAAAATGAGTGACACACACACATATAAATATAAATA [CACACA_site7115]”, the “gcPBM binding intensity (ln)” value was 9.8.
As for “AAATCAAACTTTGGTGTGCACAAATATATACATATA [GTGCAC_site9986]”, the figure is 9.51; as for “TTAACAAAACTTTTAACACACAAAAAAAAAAAAAAA [CACACA_site6947]”, 9.08.
With “CTATAATAATAAAGTGAACACACACCGATAATATAT [CACACA_site9377]”, the “gcPBM binding intensity (ln)” value is 9.78.
